Experimental data published in PubChem BioAssay AID624417 (National Center for Advancing Translational Sciences (NCATS), 2012).
Among all 410,000 compounds or so, about 6,400 (1.6%) were called active. The inconclusive results got no clear call from the source; some entries with a clear call stand among them for comparison. The call rests on the fitted dose curve; in most records, active means well fitted inhibition curve with a large enough effect; inconclusive means small, poorly fitted or top-dose-only effect; inactive means no such curve, though single readings can be large or run the other way. Potencies of inconclusive entries are left out as doubtful fits.
Further: nearly all actives have a fitted effect of over 55% in size.
Potency means the concentration at half of the fitted maximal effect; tags describe the fitted curve by direction and shape.

These compounds were tested against Glucagon-like peptide 1 receptor (Homo sapiens) (UniProt P43220) (assay: qHTS of GLP-1 Receptor Inverse Agonists (Inhibition Mode)). Conditions: HEK293 GLP-1R CRE-luciferase, luminescence, 24 h, GLP-1R form is constitutively active; series mostly up to 38.3 µM.
Sequence of UniProt P43220 (P43220 whole entry, looked up): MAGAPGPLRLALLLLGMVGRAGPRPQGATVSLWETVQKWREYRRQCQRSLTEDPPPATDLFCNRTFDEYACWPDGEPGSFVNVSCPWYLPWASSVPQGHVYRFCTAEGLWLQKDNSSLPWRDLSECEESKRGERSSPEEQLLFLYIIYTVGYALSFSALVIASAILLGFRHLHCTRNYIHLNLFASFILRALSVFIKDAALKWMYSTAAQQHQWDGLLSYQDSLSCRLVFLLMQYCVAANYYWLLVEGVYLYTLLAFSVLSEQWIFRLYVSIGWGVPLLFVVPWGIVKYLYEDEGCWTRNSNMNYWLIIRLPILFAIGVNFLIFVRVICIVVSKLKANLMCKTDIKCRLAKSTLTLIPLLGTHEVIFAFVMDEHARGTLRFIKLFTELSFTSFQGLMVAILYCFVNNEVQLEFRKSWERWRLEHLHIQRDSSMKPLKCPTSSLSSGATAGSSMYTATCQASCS
Summary of the method: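 GLP-1R inverse agonism mode: basal reporter luminescence in engineered HEK293 cells measured after one day of compound exposure at 37 deg C, with a 12 min room-temperature detection step.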
With `CCCCNC(=O)C1(C)CCN1C(=O)c1cc(OC)ccc1Br` (configuration not stated) the Potency was “inactive”.
For `CC1(C(=O)NCc2cccc(C(F)(F)F)c2)CCN1C1Cc2ccccc2C1` (configuration not stated), the Potency was active: 12.6 µM.
With `Cc1ccc(NS(=O)(=O)c2ccc(C(=O)N3CC(C)CC(C)C3)cc2)cc1` (configuration not stated) the Potency was inconclusive [inhibitor, single point].
In the case of `COc1ccc(S(=O)(=O)N2CCN(C3CCCCCCC3)CC2)cc1`, the Potency is reported as inconclusive [inhibitor, partial curve, poor fit].
`CCN(CC)S(=O)(=O)c1ccc2c(c1)c(=O)c(C(=O)NCc1ccccc1Cl)cn2C` was tested, and the Potency was “inactive”.
`COc1ccc(-c2cc(C)no2)cc1S(=O)(=O)NCc1ccco1` was tested, and the Potency was “inactive”.
For `CCN(CC(=O)Nc1cc(Cl)ccc1C)C(=O)C1COc2ccccc2O1` (configuration not stated), the Potency was inconclusive [inhibitor, single point].
In the case of `Cc1cc(C)c2c(CC(=O)NCCc3ccccc3)coc2c1`, the Potency is reported as inconclusive [inhibitor, single point].
In the case of `O=C(c1cc(-c2ccc3c(c2)OCO3)on1)N1CCOCC1`, the Potency is reported as inconclusive [inhibitor, full curve, poor fit].
With `CCCCN(C)Cc1cc(=O)oc2ccc3ccccc3c12` the Potency was inconclusive [inhibitor, partial curve, poor fit].
`Cc1cc(=O)nc2c3ccccc3n(CC(=O)NCCC3=CCCCC3)n12` was tested, and the Potency was inconclusive [inhibitor, partial curve, poor fit].
In the case of `CCOC(=O)c1noc2ncnc(N3CCN(c4cccc(C(F)(F)F)c4)CC3)c12`, the Potency is reported as inconclusive [inhibitor, single point].
`C=CCSc1nc2ccccc2c(=O)n1Cc1ccccc1` was tested, and the Potency was inconclusive [inhibitor, partial curve, poor fit].
For `CC(C)S(=O)(=O)c1csc(C(=O)Nc2ccc(F)cc2)c1N`, the Potency was inconclusive [inhibitor, single point].
In the case of `Clc1ccc(-c2cc3ccccc3[nH]2)cc1`, the Potency is reported as inconclusive [inhibitor, single point].
`O=C(CSC1=NCCS1)N1N=C(c2cccs2)CC1c1ccc(F)cc1` (configuration not stated) was tested, and the Potency was inconclusive [inhibitor, partial curve, poor fit].
In the case of `O=C(COc1ccc(C(=O)c2ccc(F)cc2)cc1)NCc1ccc(F)cc1`, the Potency is reported as inconclusive [inhibitor, full curve].
In the case of `CNC(=S)NN=C(C)CCCC(C)=NNC(=S)NC`, the Potency is reported as inconclusive [inhibitor, full curve, poor fit].
With `O=C(CCNS(=O)(=O)c1ccc(Br)cc1)N1CCN(c2ccccc2O)CC1` the Potency was inconclusive [inhibitor, single point].
For `NC(CO)c1csc(NC(=O)Nc2ccccc2Cc2ccccc2)n1` (configuration not stated), the Potency was inconclusive [inhibitor, partial curve, poor fit].
In the case of `CCCC#Cc1ccc2c(c1)O[C@H](CN(C)S(=O)(=O)c1cccc(OC)c1)[C@H](C)CN([C@H](C)CO)S2(=O)=O`, the Potency is reported as inconclusive [inhibitor, single point].
With `Cc1cccc(C(=O)NC(=S)Nc2ccc(N3CCOCC3)cc2)c1` the Potency was “inactive”.
With `O=C(NNC(=O)c1ccc(Cl)cc1Cl)Nc1ccccc1` the Potency was “inactive”.
With `CCOc1cc(Br)c(C=O)cc1OCC` the Potency was inconclusive [inhibitor, single point].
With `Cc1ccc(NC(=O)C2CCN(C(=O)OC(C)(C)C)CC2)cc1S(=O)(=O)N1CCCCC1` the Potency was inconclusive [inhibitor, partial curve, poor fit].
In the case of `O=[N+]([O-])c1cccc(/C=C/C=N/Nc2nc(N3CCCCC3)nc(N3CCCCC3)n2)c1`, the Potency is reported as “inactive”.
For `O=C1NC[C@H](c2ccccc2)N(CCc2cc(C(F)(F)F)cc(C(F)(F)F)c2)C1=O`, the Potency was inconclusive [inhibitor, single point].
With `COc1cc(C)c(S(=O)(=O)N2CCOCC2)cc1C` the Potency was “inactive”.
For `Cc1ccccc1CCNC(=O)CCn1ccc2cc(S(=O)(=O)N3CCCC3)ccc21`, the Potency was inconclusive [inhibitor, single point].
For `COc1ccc(Cl)cc1C(=O)NCc1nnnn1-c1ccccc1`, the Potency was “inactive”.
For `COc1nnc(-c2ccc(N3CCCCC3)c(NC(=O)c3ccccc3Cl)c2)c2ccccc12`, the Potency was active: 3.55 µM.
For `CCc1ccc(NC(=O)C(=O)NCC(c2cccnc2)N2CCc3ccccc3C2)cc1` (configuration not stated), the Potency was inconclusive [inhibitor, single point].
For `N#CC(c1ccccc1O)N1N=C(c2ccccc2)CC1c1ccccc1` (configuration not stated), the Potency was inconclusive [inhibitor, partial curve, poor fit].
`O=C1c2cccc3cccc(c23)C(=O)N1c1ccncc1` was tested, and the Potency was “inactive”.
In the case of `CCOC(=O)N1CCC(NS(=O)(=O)c2ccc(NC(C)=O)c(Cl)c2)CC1`, the Potency is reported as inconclusive [inhibitor, single point].
In the case of `Cc1cc(C(=O)NNC(=O)C(C)(C)Oc2ccc(Cl)cc2)c(C)o1`, the Potency is reported as inconclusive [inhibitor, single point].
In the case of `O=C(Nc1ccc(Cl)cc1)Nc1ccc2c(c1)OCO2`, the Potency is reported as inconclusive [inhibitor, partial curve].
With `Cc1ccc(C)c(S(=O)(=O)N2CCN(C(=O)c3cc(S(=O)(=O)NCc4ccccc4)ccc3C)CC2)c1` the Potency was inconclusive [inhibitor, partial curve].
With `Cc1ccccc1NC(=O)C(C)c1ccc(-c2ccccc2)c(F)c1` (configuration not stated) the Potency was inconclusive [inhibitor, single point].
For `Cc1nc(-c2ccccc2)sc1CCNC(=O)C(=O)Nc1ccc(F)c(Cl)c1`, the Potency was “inactive”.
`CC(=O)Nc1cc(-c2cccc(C(=O)NCCN(C)C)c2)cn2c(-c3ccccc3)cnc12` was tested, and the Potency was inconclusive [inhibitor, single point].
`CCc1ccccc1S(=O)(=O)c1c(C)cc(C)nc1Cl` was tested, and the Potency was inconclusive [inhibitor, partial curve, poor fit].
